# Test results taken from the BET-seq Pho4 binding data (Le et al. 2018).
# Some of the results follow. Values were computed here from the reads of four pooled replicates and scatter widely.
# Target: T1, Pho4 (S. cerevisiae) (UniProt P07270)
# T1 sequence: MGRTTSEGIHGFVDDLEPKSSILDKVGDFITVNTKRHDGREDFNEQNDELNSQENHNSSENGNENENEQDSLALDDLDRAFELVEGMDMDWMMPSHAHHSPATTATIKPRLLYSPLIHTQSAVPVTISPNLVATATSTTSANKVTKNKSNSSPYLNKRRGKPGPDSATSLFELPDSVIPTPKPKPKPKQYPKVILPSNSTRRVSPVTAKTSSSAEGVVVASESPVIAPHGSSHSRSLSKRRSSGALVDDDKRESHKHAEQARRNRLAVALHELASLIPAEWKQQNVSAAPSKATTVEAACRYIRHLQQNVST
# Test: relative binding free energy (BET-seq); higher = weaker binding
# Settings: reference: library average
row,Sequence,relative binding free energy [kcal/mol]
1,GAGTGCACGTGTCGGG,0.13
2,AGAAACACGTGTGTAT,0.03
3,GAAGGCACGTGTTAGG,-0.08
4,TGGTGCACGTGTATAT,-0.03
5,GAGGGCACGTGTAGAT,0.29
6,TAAGTCACGTGGTTTA,0.17
7,GTGTACACGTGCGGAA,0.07
8,TTGGCCACGTGGGTAG,-0.13
9,AGCTTCACGTGAGGGA,0.33
10,GGGTGCACGTGATGCT,0.24
11,TGGTTCACGTGGTCAT,0.21
12,ATGTTCACGTGTTCGA,0.27
13,TCTGTCACGTGGGGCT,-0.11
14,AGGTGCACGTGGTAGC,-0.06
15,TGGTTCACGTGTCAGT,0.44
16,GGTCGCACGTGTAGGT,-0.08
17,GAGGTCACGTGAAGAT,0.31
18,TGTATCACGTGCTGAG,0.05
19,GTTTGCACGTGTGTGT,0.12
20,GGAATCACGTGGTAAG,0.13
21,GCTAGCACGTGTGGGA,0.06
22,TAATACACGTGGGTTA,-0.01
23,GATGTCACGTGTGATA,0.3

row,Sequence,relative binding free energy [kcal/mol]
1,CGCTGCACGTGGTGTA,-0.17
2,AGTAACACGTGTTGTC,0.09
3,ATCAGCACGTGGTTGG,-0.09
4,TATATCACGTGTGGCT,0.14
5,TTTATCACGTGGCTTT,0.06
6,TATGCCACGTGGTTAG,-0.19
7,GGATGCACGTGGAATT,0.08
8,ATTTGCACGTGGGACG,0.03
9,GGTATCACGTGCTGAG,0.17
10,AAATTCACGTGGAAGT,0.43
11,TGGTCCACGTGGGTTA,-0.02
12,GCTTCCACGTGGGGTG,-0.05
13,CTTGTCACGTGGCTGT,-0.03
14,AGATACACGTGTAGGG,0.06
15,GTGGACACGTGACGGA,0.22
16,TAGGTCACGTGTAAGT,0.17
17,ATTACCACGTGAGGGG,0.07
18,ATTGGCACGTGTTATC,-0.1
19,AGCGACACGTGGGGGG,-0.08
20,GATCGCACGTGAAGGT,0.17
21,TTCGACACGTGTTGTT,0.05
22,TGGATCACGTGAGGAT,0.32
23,TTGTGCACGTGGGCGG,-0.14

row,Sequence,relative binding free energy [kcal/mol]
1,TGGCACACGTGATGTG,-0.03
2,GTGTCCACGTGTGGTT,0.09
3,TTATTCACGTGCAATT,0.35
4,GTTTGCACGTGGGTCC,-0.03
5,TTGTGCACGTGATCGA,0.05
6,ATTTGCACGTGTTTTA,0.06
7,GTTAGCACGTGGTGAG,0.02
8,TGGGTCACGTGCATAT,0.15
9,TGTTTCACGTGATATC,0.25
10,GGTGTCACGTGTACAT,0.23
11,AGTGTCACGTGTGCGA,0.02
12,TGTGGCACGTGACTCG,0.06
13,TGAGGCACGTGTAGAT,0.21
14,GTGAGCACGTGTTCTG,-0.07
15,TACGGCACGTGTGGTC,0.02
16,CTAGTCACGTGTGTGA,0.23
17,GTTTACACGTGTAGCG,0.21
18,GTCAACACGTGTTAGG,0.05
19,CGATTCACGTGAAGGG,0.45
20,GGCTTCACGTGGGCAG,0.09
21,CGTAACACGTGGTCGG,-0.11
22,TGGTTCACGTGAGGAC,0.44
23,TTTGGCACGTGGGGCT,-0.13

row,Sequence,relative binding free energy [kcal/mol]
1,ATGGGCACGTGATGAA,0.13
2,GGGCGCACGTGGTACG,-0.08
3,TCAGGCACGTGTTGAT,-0.02
4,CGTGGCACGTGGATGG,-0.08
5,CGATGCACGTGGGCTG,-0.12
6,TGGGGCACGTGAATTT,0.28
7,TAGAACACGTGAGTAT,0.33
8,TGCTGCACGTGGGGAT,-0.16
9,TTTGTCACGTGGGTTT,0.08
10,CGAAGCACGTGGTTTT,0.05
11,TCTGGCACGTGTTGTA,-0.16
12,TCTTTCACGTGTCTTT,0.21
13,TTGAACACGTGGTATA,0.03
14,GAGAGCACGTGGAGTG,0.11
15,AGAGTCACGTGGTGTA,-0.02
16,ATTCGCACGTGTTGTA,0
17,AGTGTCACGTGTGACT,0.07
18,TGGGACACGTGCGGTG,-0.12
19,AGTCACACGTGGGATG,-0.05
20,TTTACCACGTGTTGGT,-0.02
21,GGGGGCACGTGGAGCC,-0.19
22,GATTTCACGTGGAAGT,0.47
23,ATAAGCACGTGGGTAT,-0.26

row,Sequence,relative binding free energy [kcal/mol]
1,TAAAACACGTGGGGGT,-0.19
2,AGTGGCACGTGTAGCG,-0.04
3,TGTTTCACGTGGGATT,0.23
4,TATTACACGTGTCTTG,0.04
5,GTTGACACGTGTTTGG,0.09
6,GGAGACACGTGGATGT,0.01
7,TTCTGCACGTGGATGT,-0.03
8,ATGTTCACGTGCTAGG,0.18
9,TGGTACACGTGGATGA,0.04
10,ATTTGCACGTGGGTCA,-0.11
11,TATTGCACGTGGCTGA,-0.14
12,AGGGTCACGTGTGGTG,0.15
13,CGGGCCACGTGGTTGG,-0.11
14,TAAGGCACGTGGTCAT,-0.18
15,TGTGGCACGTGACTGG,-0.04
16,CTAGTCACGTGTCGGG,0.1
17,GTAGACACGTGGGCTT,-0.24
18,GTGCGCACGTGCGAGG,-0.07
19,CGGTACACGTGGAAGT,0.13
20,GTATTCACGTGGTATG,0.26
21,AGTGGCACGTGTATAA,-0.2
22,AAGTACACGTGGTATA,-0.04
23,GAGAGCACGTGTGGGT,-0.05
